The whole screen tested about 39,000 compounds, of which about 220 (0.56%) showed activity. The list shows a part of the results.
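Note: static incubation at 37 °C against the wild-type strain, values averaged over two biological replicates.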

This experiment relates to Escherichia coli K-12 BW25113. Kind of experiment: relative growth (OD600 normalised to plate interquartile mean) (fraction); higher = less growth inhibition, active = 0.2 or less. Particulars: 50 µM; LB; incubation time: overnight (16-24 h).
`C[C@H]1CN([C@@H](C)CO)C(=O)c2ccccc2-c2ccccc2CO[C@@H]1CN(C)Cc1ccccc1C(F)(F)F`: the relative growth is inactive: 1.1. As for `CCOC(=O)[C@H]1[C@@H]2[C@@H](Cc3ccccc3N)[C@@H](C(=O)OCC)N(c3ccc(OC)cc3)C(=O)[C@@]23C=C[C@@H]1O3`, the relative growth is inactive: 1.02. With `C[C@@H]1CN([C@H](C)CO)C(=O)c2cccc(NS(C)(=O)=O)c2O[C@@H]1CN(C)C(=O)Nc1ccc2c(c1)OCO2`, the relative growth is inactive: 1.03. Regarding `C[C@H](CO)N1C[C@H](C)[C@H](CN(C)C(=O)Nc2cccc3ccccc23)Oc2c(NC(=O)Nc3ccccc3)cccc2C1=O`, the relative growth was inactive: 1.02.

With `Cc1noc(C)c1S(=O)(=O)Nc1cccc2c1O[C@@H](CN(C)C(=O)NC(C)C)[C@@H](C)CN([C@H](C)CO)C2=O`, the relative growth was inactive: 0.982.

On to `Cc1ccc(S(=O)(=O)Nc2ccc3c(c2)C(=O)N([C@@H](C)CO)C[C@H](C)[C@H](CN(C)S(=O)(=O)c2ccc(Cl)cc2)OCCCC[C@@H](C)O3)cc1`, for which the relative growth is inactive: 1.02.

Consider `CNC(=O)CN1CCOC[C@]2(CCCN(C(=O)c3ccn(C)n3)C2)C1`, for which the relative growth is inactive: 0.99. As for `C[C@@H]1CCCCO[C@H](CN(C)Cc2ccc(Cl)c(Cl)c2)[C@H](C)CN([C@@H](C)CO)C(=O)c2cc(NC(=O)Nc3ccc(C(F)(F)F)cc3)ccc2O1`, the relative growth is inactive: 1.03. On to `O=C(C[C@@H]1CC=CC[C@H](NC(=O)OCC2c3ccccc3-c3ccccc32)C(=O)OC[C@H](Cc2ccccc2)NC1=O)N[C@H](CO)Cc1ccccc1`, for which the relative growth was inactive: 0.961. `CO[C@@H]1CN(C)C(=O)c2cc(NC(=O)Nc3ccc(Cl)cc3)ccc2OC[C@@H](C)N(C(=O)Nc2c(C)noc2C)C[C@H]1C`: the relative growth is inactive: 1.

Turning to `C[C@H]1CN([C@@H](C)CO)S(=O)(=O)c2ccc(C#CC3CC3)cc2O[C@H]1CN(C)Cc1ccccc1F`, the relative growth was inactive: 1.02. The same measure for `C/C=C/c1ccc2c(c1)O[C@@H](CN(C)S(=O)(=O)c1ccc(C)cc1)[C@@H](C)CN([C@H](C)CO)S2(=O)=O`: inactive: 1.01; for `CCC[C@@H](O)C#Cc1cnc2c(c1)C(=O)N([C@H](C)CO)C[C@H](C)[C@H](CN(C)S(=O)(=O)c1ccc(OC)cc1)O2`: inactive: 1.03.

Consider `Cn1cnc(S(=O)(=O)N2C[C@@H](O)COC[C@H]3O[C@H](CC(=O)NCc4cccc(F)c4)CC[C@@H]32)c1`, for which the relative growth was inactive: 0.98.

`O=C(C[C@@H]1CC[C@H]2[C@@H](COC[C@@H](O)CN2S(=O)(=O)c2ccccc2)O1)NCc1ccc2c(c1)OCO2`: the relative growth is inactive: 0.964. With `COc1ccc(-c2ccc3c(c2)O[C@@H](CN(C)CC2CCOCC2)[C@@H](C)CN([C@H](C)CO)S3(=O)=O)cc1`, the relative growth is inactive: 0.976. Consider `Cc1ccc(S(=O)(=O)Nc2ccc3c(c2)CC(=O)N([C@H](C)CO)C[C@@H](C)[C@H](CN(C)C(=O)Nc2ccc(C(F)(F)F)cc2)O3)cc1`, for which the relative growth was inactive: 0.991. Regarding `C[C@H]1CN([C@@H](C)CO)C(=O)c2cc(NC(=O)Nc3cccc4ccccc34)ccc2O[C@H]1CN(C)S(=O)(=O)c1ccc(F)cc1`, the relative growth is inactive: 1.05. The same measure for `CN(C)C(=O)c1ccc(-c2cccc(-c3nc(C(=O)NC4CCCC4)cc4c3[C@H](CCO)N([S@@](=O)C(C)(C)C)C4)c2)cc1`: inactive: 0.991. As to `COc1cccc(S(=O)(=O)N[C@@H]2CC[C@H](CC(=O)NC3CCC3)O[C@H]2CO)c1`, the relative growth is inactive: 0.992. As for `O=C(C[C@@H]1C=C[C@H](NC(=O)Nc2cc(F)ccc2F)[C@@H](CO)O1)NCCCN1CCOCC1`, the relative growth was inactive: 1.02. Regarding `C[C@@H]1CCCCO[C@@H](CN(C)C(=O)NC2CCCCC2)[C@H](C)CN([C@@H](C)CO)C(=O)c2cc(NC(=O)Nc3ccc(F)cc3)ccc2O1`, the relative growth was inactive: 1.04. For the compound `COc1ccc(C#Cc2ccc3c(c2)[C@]2(C(=O)N3)[C@H](C(=O)N3CCc4cc(OC)c(OC)cc4C3)[C@H]3C(=O)O[C@H](c4ccccc4)[C@H](c4ccccc4)N3[C@@H]2c2ccc(OCCO)cc2)cc1`, the relative growth was inactive: 1.08.

Consider `C[C@@H]1CN([C@H](C)CO)C(=O)c2cc(NC(=O)Nc3ccc(F)cc3)ccc2O[C@H]1CN(C)Cc1ccc(-c2ccccc2)cc1`, for which the relative growth was inactive: 0.97. With `C[C@@H]1CN([C@H](C)CO)C(=O)Cc2cc(NS(=O)(=O)c3ccc(F)cc3)ccc2O[C@@H]1CN(C)S(=O)(=O)c1cccs1` the figure was inactive: 0.981; with `COCCN1C[C@@H]2CN(C(=O)c3cnn(C)c3)C[C@H]2C1=O`, inactive: 0.908; with `CC(C)NC(=O)Nc1ccc2c(c1)C(=O)N([C@@H](C)CO)C[C@H](C)[C@H](CN(C)C(=O)Nc1ccccc1)OCCCC[C@H](C)O2`, inactive: 0.992. With `COCCN1[C@@H]2COC[C@H]1CN(S(=O)(=O)c1cn(C)cn1)C2` the figure was inactive: 0.98. With `CC(C)c1c(O)ccc2c1CCC1C(C)(C)CCCC21C` (centres undefined) the figure was inactive: 0.993; with `C[C@@H]1CCCCO[C@@H](CN(C)S(=O)(=O)c2cccs2)[C@H](C)CN([C@H](C)CO)C(=O)c2cc(NC(=O)Cc3ccccc3)ccc2O1`, inactive: 1. For `C[C@@H]1CN([C@H](C)CO)C(=O)c2cccc(NS(=O)(=O)c3ccccc3)c2O[C@H]1CN(C)Cc1ccc(Cl)c(Cl)c1`, the relative growth is inactive: 1.01.

Turning to `CC(C)NC(=O)Nc1ccc2c(c1)C(=O)N([C@@H](C)CO)C[C@H](C)[C@H](CN(C)Cc1ccc(Cl)c(Cl)c1)OCCCC[C@@H](C)O2`, the relative growth is inactive: 1. `C[C@H]1CN([C@@H](C)CO)C(=O)Cc2cc(NC(=O)Nc3ccc4c(c3)OCO4)ccc2O[C@@H]1CN(C)Cc1ccc(Cl)c(Cl)c1`: the relative growth was inactive: 1.01. As to `Cc1ccc(-c2ccc3c(c2)O[C@@H](CN(C)C(=O)CN(C)C)[C@@H](C)CN([C@@H](C)CO)S3(=O)=O)cc1`, the relative growth is inactive: 0.951.

Turning to `OCc1ccccc1-c1ccccc1`, the relative growth was inactive: 0.962. With `CC(C)NC(=O)N(C)C[C@H]1Oc2ccc(NC(=O)CCN3CCOCC3)cc2C(=O)N([C@H](C)CO)C[C@@H]1C` the figure was inactive: 1.01; with `Cc1noc(C)c1S(=O)(=O)Nc1ccc2c(c1)C(=O)N([C@H](C)CO)C[C@@H](C)[C@@H](CN(C)Cc1ccc(C(F)(F)F)cc1)OCCCC[C@@H](C)O2`, inactive: 0.984; with `Cc1noc(C)c1NC(=O)N(C)C[C@H]1Oc2ccc(NC(=O)C3CC3)cc2C(=O)N([C@@H](C)CO)C[C@H]1C`, inactive: 0.987. `C[C@H]1CN([C@@H](C)CO)C(=O)c2cc(NC(=O)CCN3CCOCC3)ccc2O[C@H]1CN(C)S(=O)(=O)c1ccc(Cl)cc1`: the relative growth is inactive: 0.987. In the case of `CCOC(=O)COc1ccc(-c2nn[nH]n2)cc1`, the relative growth is inactive: 0.983. Turning to `C[C@@H]1CN([C@@H](C)CO)C(=O)CCCn2cc(nn2)CO[C@H]1CN(C)S(C)(=O)=O`, the relative growth was inactive: 1.02. As to `C[C@@H]1CCCCO[C@H](CN(C)Cc2ccc(Cl)c(Cl)c2)[C@@H](C)CN([C@H](C)CO)C(=O)c2cc(NC(=O)Nc3ccc4c(c3)OCO4)ccc2O1`, the relative growth is inactive: 0.994. With `C[C@@H]1CN([C@@H](C)CO)C(=O)Cc2cc(NC(=O)Cn3cnnn3)ccc2O[C@@H]1CN(C)Cc1ccc(Cl)c(Cl)c1` the figure was inactive: 0.983; with `C[C@@](N)(C(=O)O)c1ccc(-c2nn[nH]n2)cc1`, inactive: 0.988; with `Cc1nn(C[C@@H](O)Cn2cnc3c2c(=O)n(C)c(=O)n3C)c(C)c1Br`, inactive: 1.01. With `O=c1c(-c2ccccc2F)coc2cc(O[C@@H]3O[C@H](CO)[C@@H](O)[C@H](O)[C@@H]3O)ccc12` the figure was inactive: 0.976; with `COc1ccc(S(=O)(=O)N(C)C[C@H]2Oc3ccc(NC(=O)Cc4ccccc4)cc3C(=O)N([C@@H](C)CO)C[C@H]2C)cc1`, inactive: 1.01; with `C[C@@H]1CN([C@H](C)CO)C(=O)c2ccccc2-c2ccccc2CO[C@@H]1CN(C)S(=O)(=O)c1cn(C)cn1`, inactive: 0.997. `C[C@@H]1CN([C@@H](C)CO)C(=O)c2cc(Br)cnc2O[C@H]1CN(C)C(=O)c1ccc2c(c1)OCO2`: the relative growth was inactive: 0.994. As for `Cc1noc(C)c1S(=O)(=O)Nc1ccc2c(c1)C(=O)N([C@@H](C)CO)C[C@H](C)[C@H](CN(C)S(=O)(=O)c1cn(C)cn1)O2`, the relative growth was inactive: 0.981. As for `CC(C)N1C[C@H](C)[C@@H](CN(C)Cc2ccc(Oc3ccccc3)cc2)Oc2c(cccc2-c2nn[nH]n2)C1=O`, the relative growth is inactive: 0.998. With `CCS(=O)(=O)N1CC[C@]2(CC1)CN([C@@H](CO)c1[nH]c3cc(ccc3c12)OC)C(=O)Nc1c(noc1C)C`, the relative growth was inactive: 0.966. With `Cc1cc(C(=O)Nc2cccc3c2O[C@H](CN(C)S(=O)(=O)c2c(C)noc2C)[C@H](C)CN([C@@H](C)CO)C3=O)n(C)n1`, the relative growth is inactive: 1.01. In the case of `CC(=O)NCCCC[C@@H]1NC(=O)[C@H]2C[C@@H](C(=O)NCCCCCCNC(=O)CS)[C@@H](c3ccc(O)cc3)N2C1=O`, the relative growth is inactive: 1.03. The same measure for `Clc1ccc(Sc2ccc(-c3ccccn3)s2)cc1`: inactive: 0.991; for `COc1cccc(S(=O)(=O)N(C)C[C@H]2Oc3cc(C#CCC(C)C)ccc3S(=O)(=O)N([C@@H](C)CO)C[C@H]2C)c1`: inactive: 0.934. In the case of `CC(C)N1CC2(CN(Cc3ccc(Cl)c(Cl)c3)C2)Oc2c(NC(=O)c3ccncc3)cccc2C1=O`, the relative growth is inactive: 0.972. With `O=C(CN1CCOCC1)NCC[C@@H]1CC[C@H](NS(=O)(=O)c2ccc(F)cc2)[C@H](CO)O1` the figure was inactive: 0.973. Turning to `Cc1ccc(S(=O)(=O)Nc2ccc3c(c2)CC(=O)N([C@@H](C)CO)C[C@@H](C)[C@@H](CN(C)S(=O)(=O)c2cn(C)cn2)O3)cc1`, the relative growth was inactive: 0.979.

The record behind these values is the supplement of paper PMC9446081.
